# From PubChem BioAssay AID651820 (National Center for Advancing Translational Sciences (NCATS), 2012)
# Among all 340,000 compounds or so, about 12,000 (3.5%) were called active. This list was built around the results that the source calls inconclusive (neither active nor inactive); the mix of calls is not that of the screen. The call rests on the fitted dose curve; in most records, active means well fitted inhibition curve with a large enough effect; inconclusive means small, poorly fitted or top-dose-only effect, or another doubt; inactive means no such curve, though single readings can be large or run the other way. No potency is given beside an inconclusive call; the fits are too rough.
# Assay: qHTS Assay for Inhibitors of Hepatitis C Virus (HCV)
# Conditions: Huh7.5.1 HCVcc-Cre (HCVcc is cell-culture hepatitis C virus) infection, luciferase reporter, 44 h; activity change, negative = inhibition: at 41.8 µM (top of the series) unless noted
# How it was run: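 Cells (1,000/well) were plated 4 h before compound, then infected with HCVcc-Cre virus (~0.5 moi). After 44 h further culture, infection was read as luciferase luminescence following a 15 min substrate incubation at room temperature.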
# On the % scale 0 is the no-effect control and ±100 the full control effect; potency means the concentration at half of the fitted maximal effect; tags describe the fitted curve by direction and shape.
Compound,"activity change, negative = inhibition",Potency
COc1ccccc1N(CC(=O)N1CCCC1)S(=O)(=O)c1cc([N+](=O)[O-])ccc1Cl,inactive: 7.94%,–
FC(F)(F)c1cc(C(F)(F)F)c2ccc(N3CCN(c4ccc(Cl)cc4)CC3)nc2n1,inactive: 12.9%,–
COc1cc(/C=N/NC(=O)c2cc(-c3ccccc3C)nc3ccccc23)cc(OC)c1O,inactive: -9.28%,–
CCC(CO)Oc1cc(NCc2ccccc2C(F)(F)F)c2ncn(C(C)C)c2c1 (centres undefined),–,active: 1.26 µM
COC(=O)c1cc2ccccn2c2c(C(=O)OC)c(C(=O)OC)cc1-2,–,"inconclusive [inhibitor, full curve, poor fit]"
CCOC(=O)Cn1nc(C)n(-c2ccccc2)c1=O,inactive: 12.1%,–
Cc1sc2ncnc(N3CCCCC3C)c2c1C (centres undefined),–,"inconclusive [inhibitor, partial curve]"
C/C=C/c1ccc(OCc2cc(=O)n3cc(C)ccc3n2)c(OC)c1,–,"inconclusive [inhibitor, partial curve, poor fit]"
N#CCCn1cc(C(=O)Nc2ccc([N+](=O)[O-])cc2)c(-c2ccccc2)n1,inactive: 1.42%,–
Cc1cccc(OCC(=O)NCC(=O)N/N=C/c2cc(Br)cc(Br)c2O)c1,–,"inconclusive [inhibitor, single point]"
c1ccc(C(c2ccccc2)N2CCN(C(c3ccccn3)c3nnnn3C3CCCC3)CC2)cc1 (centres undefined),–,"inconclusive [inhibitor, single point]"
Clc1ccc2nc(COc3ccccc3)[nH]c2c1,inactive: 5.26%,–
O=C1C2CCCN2C(c2ccc(Cl)cc2)N1c1ccccn1 (centres undefined),–,"inconclusive [inhibitor, partial curve]"
Cc1cc(C(=O)Nc2cccc(C)c2C)n(-c2ccccc2)n1,inactive: 5.26%,–
COc1ccc(Cl)cc1NC(=S)N(Cc1cccnc1)Cc1ccco1,–,"inconclusive [inhibitor, single point]"
COc1cc(NC(=O)C2CCCN(S(=O)(=O)c3ccc4c(c3)CCCN4C(C)=O)C2)cc(OC)c1 (centres undefined),–,"inconclusive [inhibitor, partial curve]"
Cc1ccc(-c2nc(CCNC(=O)c3ccco3)cs2)cc1,–,active: 10 µM
Cc1cc(C2=NNC(=Nc3ccc(S(=O)(=O)N4CCOCC4)cc3)SC2)c(C)n1C,–,"inconclusive [inhibitor, single point]"
CC(C)Oc1ccc(C(=O)NC2=NCCS2)cc1,inactive: 20.7%,–
CCN1/C(=C2\C(=O)N(C)C(=S)N2c2ccccc2)C=Cc2ccccc21,–,"inconclusive [inhibitor, single point]"
CC(=O)c1ccc(NC(=O)COC(=O)c2nc(Cl)ccc2Cl)cc1,inactive: 10.3%,–
COc1ccc(S(=O)Cc2ccc(C(=O)N3CCN(c4cccc(C)c4C)CC3)o2)cc1 (centres undefined),–,"inconclusive [inhibitor, partial curve]"
Cc1ccc(NC(=O)c2cccc3c2C(=O)N(C2CCCCC2)C3)c(Cl)c1,–,"inconclusive [inhibitor, single point]"

Compound,"activity change, negative = inhibition",Potency
COC(=O)C1=C(c2cc3ccccc3s2)C[C@@H]2CC[C@H]1N2C(=O)NCc1cccc2ccccc12,–,"inconclusive [inhibitor, partial curve]"
CC(C)COc1ccc(C(=O)N2C(=O)c3ccc(N)cc3C2=O)cc1,–,"inconclusive [inhibitor, partial curve, poor fit]"
O=C(Cc1ccc(Cl)cc1)NCCCNC(=O)c1cccnc1,inactive: -11.5%,–
COc1ccc(NC(=O)/C(C#N)=C\c2ccc(N3CCOCC3)o2)cc1,–,"inconclusive [inhibitor, single point]"
Cc1sc(NC(=O)CSc2nnnn2C(C)C)c(C#N)c1C,inactive: -6.63%,–
CCCN(CC(=O)Nc1ccccc1OC)C(=O)CSc1ccc(Br)cc1C,–,active: 10 µM
CCC(C)NC(=O)CSc1nnc(-c2ccc(C(C)(C)C)cc2)n1C (centres undefined),–,"inconclusive [inhibitor, single point]"
O=C(CSc1nc2[nH]ncc2c(=O)n1-c1ccccc1)NCCc1ccccc1,inactive: -21.3%,–
COc1ccc(C)cc1NC(=O)CSc1nnc(COc2ccc(Cl)cc2)n1Cc1ccco1,–,"inconclusive [inhibitor, single point]"
N/C(=N\OC(=O)c1ccc(F)cc1)c1ccc(Br)cc1,inactive: 0.333%,–
O=C(COC(=O)CNC(=O)c1ccc(Cl)c([N+](=O)[O-])c1)NCC1CCCO1 (centres undefined),inactive: 6.28%,–
CCn1cc(C(c2ccccc2)C(C(C)=O)[N+](=O)[O-])c2ccccc21 (centres undefined),–,"inconclusive [inhibitor, full curve]"
C=CCn1c(COc2ccccc2F)nnc1SCC(=O)c1c[nH]c2ccccc12,–,"inconclusive [inhibitor, partial curve]"
COc1ccc(CCNC(=S)NC(=O)c2ccc(Br)cc2)cc1OC,–,"inconclusive [inhibitor, partial curve]"
O=C1C2C3C=CC(C4CC34)C2C(=O)N1/N=C/c1ccc(-c2ccc(F)cc2[N+](=O)[O-])o1 (centres undefined),–,"inconclusive [inhibitor, partial curve]"
COC(=O)C(C)(C)ONC(=O)Nc1ccccc1Cl,inactive: -35.8%,–
O=C(N/N=C/c1ccc2c(c1)OCO2)c1ccc(NC(=O)c2ccccc2Cl)cc1,–,"inconclusive [inhibitor, partial curve]"
Cc1cccc(N2C(=O)NC(=O)/C(=C\c3cccn3-c3ccc(Cl)cc3)C2=O)c1,–,"inconclusive [inhibitor, single point]"
Cc1ccc(/C=C2/NC(=O)N(Cc3ccccc3F)C2=O)o1,inactive: 2.5%,–
O=C(CCc1ccc(S(=O)(=O)NC2CCCCC2)cc1)N(Cc1ccccc1)Cc1ccccc1,–,"inconclusive [inhibitor, partial curve]"
C=C(C)c1cccc(C(C)(C)NC(=O)Nc2nnc(C(C)C)s2)c1,–,"inconclusive [inhibitor, single point]"
Cc1ccc(-c2csc3nc[nH]c(=S)c23)cc1C,–,"inconclusive [inhibitor, single point]"
Cc1ncsc1C(=O)Nc1nc2c(s1)CC(C)CC2 (centres undefined),–,"inconclusive [inhibitor, single point]"

Compound,"activity change, negative = inhibition",Potency
CCC(C)c1ccccc1NC(=O)c1cc2cccc([N+](=O)[O-])c2[nH]1 (centres undefined),–,"inconclusive [inhibitor, single point]"
CCOc1ccc(CCNC(=O)c2nnn(CC(=O)Nc3ccccc3C)c2N)cc1OCC,–,"inconclusive [inhibitor, partial curve]"
COc1ccc(-c2cc(C3CC3)nc(N)c2C#N)cc1,–,"inconclusive [inhibitor, partial curve]"
Cc1cc(C)n(-c2ccc(C(=O)Nc3ccc(C)c(S(=O)(=O)N4CCOCC4)c3)cc2)n1,–,"inconclusive [inhibitor, partial curve]"
CC(C)c1ccc(CNc2ccc3c(c2)ncn3C)cc1,–,"inconclusive [inhibitor, single point]"
Cc1ccc(-n2cccc2C(=S)N=P(N(C)C)(N(C)C)N(C)C)cc1,–,"inconclusive [inhibitor, single point]"
N#CC1=CC2CN(Cc3ccccc3)C1C1C(=O)N(c3ccccc3)C(=O)C21 (centres undefined),inactive: 9.5%,–
COc1ccc(CCNC(=O)C(=O)NCC2CCCN2S(=O)(=O)c2cccs2)cc1OC (centres undefined),–,"inconclusive [inhibitor, partial curve]"
CNC(=O)C1CC(=O)N(CCc2ccccc2)C(=Nc2ccc(OC)cc2)S1 (centres undefined),inactive: 2.13%,–
COc1ccc(OC)c(-n2c(=S)[nH]c3cc(C(=O)N4CCC(C(N)=O)CC4)ccc3c2=O)c1,–,"inconclusive [inhibitor, partial curve, poor fit]"
COc1cccc(NC(=O)Nc2nc(SC(C)(C)C)ns2)c1,–,"inconclusive [inhibitor, single point]"
COc1ccc2nc(NC(=O)c3ccc(NS(=O)(=O)c4cccs4)cc3)sc2c1,inactive: 1.62%,–
CC(=O)c1ccccc1Oc1cc(NN2CCCCC2)c([N+](=O)[O-])cc1[N+](=O)[O-],–,"inconclusive [inhibitor, single point]"
Clc1cccc(Cl)c1CO/N=C/c1c(-c2ccccc2)nc2n1CCS2,–,"inconclusive [inhibitor, single point]"
CC(C)c1cc(Br)ccc1OCCCN1C(=O)NC(C)(C)C1=O,–,active: 12.6 µM
Cc1ccnc(NC(=S)N2CCN(c3cccc(C(F)(F)F)c3)CC2)c1,–,"inconclusive [inhibitor, partial curve]"
O=C(NCc1ccco1)C1CC(c2ccc(C(F)(F)F)cc2)=NO1 (centres undefined),–,"inconclusive [inhibitor, partial curve]"
COc1ccc(C2C(C#N)=C(C)NC3=C2S(=O)(=O)c2ccccc23)cc1 (centres undefined),inactive: 13.2%,–
C/C(CC(=O)Nc1ccc2c(c1)OCCO2)=N\NC(=O)Cc1ccccc1,inactive: 1.99%,–
CCN1CCN(Cc2ccc(NC(=O)c3ccc(C)c(NC(=O)c4cccc(-c5cn[nH]c(=O)c5)c4)c3)cc2C(F)(F)F)CC1,–,"inconclusive [inhibitor, partial curve]"
Cc1cccc(N2CCN(C(=O)C3CCN(S(=O)(=O)c4cccc5cccnc45)CC3)CC2C)c1 (centres undefined),–,"inconclusive [inhibitor, partial curve]"
Nc1ccc2c(c1)-c1ccc(F)cc1C2=O,–,"inconclusive [inhibitor, partial curve]"
O=C(N/N=C/C=C\c1ccccc1[N+](=O)[O-])c1ccco1,inactive: 4.36%,–
